In publication PMC6919601, “Identification of Plasmodium dipeptidyl aminopeptidase allosteric inhibitors by high throughput screening” (PLoS ONE, 2019):
Values joined by “and” are separate entries in the source; they are usually repeats but may differ in a detail not shown here. Identical values can stand only once. The campaign covered roughly 110,000 compounds. About 230 (0.21%) showed an effect of 50% or more. The list shows a part of the results.

Target: DPAP1 (Plasmodium falciparum, UniProt Q8IIJ9)
Assay: primary screen, percent inhibition; read by cleavage of a fluorogenic dipeptide substrate; higher = more effect of the substance
Design: species or system P. falciparum D10 trophozoite lysates; single well
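Note: 30 min substrate incubation versus DMSO and 10 µM JCP410 controls.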

Sequence of DPAP1 (Q8IIJ9 whole entry, looked up): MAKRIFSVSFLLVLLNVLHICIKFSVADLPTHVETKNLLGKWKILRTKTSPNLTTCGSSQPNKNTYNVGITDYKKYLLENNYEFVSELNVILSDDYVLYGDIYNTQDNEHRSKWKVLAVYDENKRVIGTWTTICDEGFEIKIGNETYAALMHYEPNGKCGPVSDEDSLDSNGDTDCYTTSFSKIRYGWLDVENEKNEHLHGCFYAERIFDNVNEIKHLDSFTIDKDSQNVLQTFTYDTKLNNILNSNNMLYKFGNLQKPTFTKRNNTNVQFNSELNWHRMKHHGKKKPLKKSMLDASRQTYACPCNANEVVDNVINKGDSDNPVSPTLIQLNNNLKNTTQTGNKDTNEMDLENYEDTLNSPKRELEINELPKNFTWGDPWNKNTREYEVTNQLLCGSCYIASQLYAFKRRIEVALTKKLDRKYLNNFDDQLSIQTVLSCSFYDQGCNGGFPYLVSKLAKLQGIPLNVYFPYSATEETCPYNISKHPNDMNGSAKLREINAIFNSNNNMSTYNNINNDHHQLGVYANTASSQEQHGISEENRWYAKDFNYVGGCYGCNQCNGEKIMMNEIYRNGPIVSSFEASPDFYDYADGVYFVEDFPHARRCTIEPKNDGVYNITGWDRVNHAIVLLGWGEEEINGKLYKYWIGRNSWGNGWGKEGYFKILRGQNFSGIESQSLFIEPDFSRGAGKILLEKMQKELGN

| SMILES | % Inhibition @ 10 uM |
| --- | --- |
| O=C(/C=C/c1ccc(Cl)cc1)Nc1ccc(Cl)cc1 | -0.414% |
| Cc1ccc(-c2cn3c(n2)sc2cc(C(=O)N4CCC5(CC4)OCCO5)ccc23)cc1 | 21.7% |
| COc1ccc(/C=C2\SC(=O)N(CC(=O)Nc3nccs3)C2=O)cc1OC | -2.27% |
| CC(NC(=O)CCNS(=O)(=O)c1cccc2nonc12)c1ccccc1 (stereo not drawn) | -2.9% |
| O=C(CN1C(=O)CSc2ncccc21)N1CCCCCC1 | -0.637% |
| CCO/C(O)=C1\C(C)=NC2=C(C(=O)CC(c3ccccc3)C2)C1c1cc(OC)c(OC)c(OC)c1 (stereo not drawn) | -1.6% |
| COc1ccc(/C=N/n2c(S)nnc2-c2ccccc2Cl)c(OC)c1 | -4.91% |
| C=CCOc1ccccc1/C=C1\N=C(c2ccccc2)OC1=O | 23.7% |
| C=C(C)Cn1c(SCC(=O)O)nc2c1c(=O)n(C)c(=O)n2C | -2.78% |
| CCOC(=O)c1c(C)c(C(=O)NC2CCCCCC2)c(C)n1CC | -7.18% |
| Cc1cccn2c(=O)c3cc(C(=O)NCCC(c4ccccc4)c4ccccc4)n(C)c3nc12 | 4.19% |
| CNC(=O)Cn1c(-c2cccs2)cc2ccccc21 | 0.95% |
| CCCCc1ccc(S(=O)(=O)Nc2ccc(C(F)(F)F)cc2)cc1 | 2.78% |
| COc1ccc(N2CCN(C(=O)CN(CCc3ccccc3)S(C)(=O)=O)CC2)cc1 | -5.21% |
| CNc1nsc(C(=O)c2ccc(C)cc2)c1N | 3.39% |
| CC12COc3ccccc3C1c1sc(O)nc1SC2 (stereo not drawn) | -0.736% |
| CCOc1cccc(C(=O)Nc2ccc(N3CCN(C)CC3)cc2)c1 | 4% |
| CC(=O)c1cccc(Nc2ncnc3ccccc23)c1 | -4.28% and -1.42% |
| O=C(CCc1ccccc1)ONC(=O)c1ccc(Cl)cc1 | -0.386% |
| CC1CN(Cc2ccc(Cl)cc2Cl)CC(C)O1 (stereo not drawn) | -4.3% |
| CCOc1ccc(CNCc2c(C(=O)O)c(C)n(Cc3ccc(C)cc3)c2C)cc1OC | -5.49% |
| Cc1cc2c(c(O)n1)C(c1cc3c(cc1Br)OCO3)C(C#N)=C(N)O2 (stereo not drawn) | 3.93% |
| COc1ccc(C(=O)NCCSCc2ccccc2)cc1OC | 2.7% |
| CCN(CC)CCNC(=O)c1c(C)oc2cc3c(C(=O)NCCN(CC)CC)c(C)oc3cc12 | -1.68% |
| COC(=O)C1CCC(c2ccccc2)CC1 (stereo not drawn) | 2.6% |
| Cc1ccc2nc(Nc3nc(O)c4c(n3)CCCC4)nc(C)c2c1 | -0.545% |

| SMILES | % Inhibition @ 10 uM |
| --- | --- |
| CCOc1cccc2c1Oc1nc(-c3cccc(O)c3)nc(S)c1C2 | 22% |
| CN1CCN(C(=O)c2ccc(CN3CCOCC3)cc2)CC1 | -10% |
| Cc1ccc(NC(=O)COc2ccc([N+](=O)[O-])cc2C)c(Br)c1 | -2.62% |
| COc1ccc(NC(=O)CN2C(=O)S/C(=C/c3ccc(OC)c(O)c3)C2=O)cc1 | 3.56% |
| COc1ccc(/C=C2\SC(=O)N(c3ccc(O)cc3)C2=O)cc1OC | 7.09% |
| O=C(c1ccccc1)N1CCN(c2ncnc3sc4c(c23)CCCC4)CC1 | 2.16% |
| Cc1n[nH]c(C)c1Cc1ccc(C(=O)O)cc1 | 2.1% |
| Cc1cccc(Cn2c(N3CCc4ccccc4C3)nc3c2c(=O)[nH]c(=O)n3C)c1 | 0.758% |
| COc1ccc(-c2nc(SCC(=O)Nc3cccc(F)c3)nc(O)c2C#N)cc1 | 3.19% |
| CC1(C)CC(=O)C2=C(C1)OC1=C(C(=O)CC(C)(C)C1)C2c1cccc(OCC(=O)Nc2ccccc2)c1 | -4.97% |
| O=C(Nc1ccc2c(c1)CCC2)c1cccc(OC(F)F)c1 | -1.61% |
| CCCN1CC=C2C(C#N)=C(N)C(C#N)(C#N)C(c3ccccc3Cl)C2C1 (stereo not drawn) | 4.95% |
| CCN(Cc1ccccc1)Cc1ccc(-c2ccc(Cl)cc2)o1 | -7.18% |
| CCNC(=O)c1cc(-c2ccc(Cl)cc2)nc2ccccc12 | -8.64% |
| OCCN1CCN(CCCc2c3c(cc4c2CCC4)CCC3)CC1 | 1.19% |
| O=C(Nc1nc(-c2ccc(F)cc2)cs1)C1CCCO1 (stereo not drawn) | -8.49% |
| Cn1ncc2c(NCc3ccncc3)ncnc21 | 0.0904% |
| CN(C)c1ccc(CN2CCCC(O)C2)cc1 (stereo not drawn) | -5.57% |
| COc1ccc(C2N=C(c3cccc(OC)c3)Nc3ccc4ccccc4c32)cc1 (stereo not drawn) | 8.53% |
| COc1cccc(C2CC3=Nc4ccccc4NC(c4ccc5c(c4)OCO5)C3=C(O)C2)c1 (stereo not drawn) | 1.35% |
| C(#Cc1ccccc1)/C=N/n1cnnc1 | -1.52% |
| CCn1c2ccccc2c2nnc(SCC(=O)Nc3cc(C)on3)nc21 | 5.55% |
| C#CCOc1ccc(C2C(C#N)=C(N)Oc3cc4c(cc32)OCO4)cc1OC (stereo not drawn) | 0.851% |
| CN(C)CCNC(=O)c1ccc(Cn2c(SCc3ccccc3F)nc3cccnc32)cc1 | -0.0871% |
| Oc1cc(Nc2ccccc2Cl)nc(O)n1 | -0.711% |
